PubChem BioAssay (NCI)
“And” between values parts separate entries of the source, which are not always exact repeats. Equal entries are not always repeated.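 Grown in 96-well plates, cells were treated for 48 hours with each compound at five concentrations. Insufficient inhibition: endpoint recorded as highest concentration tested. GI50 marks 50% less growth. TGI: total growth inhibition.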

Test system: NCI-H322M lung
Assay: NCI tumour cell line growth inhibition, 48 h

Row | Compound | TGI | GI50 [µM]
1 | O=C(O)C(=Cc1ccc(-c2ccccc2)cc1)C(=O)O | > 57.3 µM | –
2 | O=c1[nH]nc(-c2ccccc2)n1/N=C/c1ccc([N+](=O)[O-])cc1 | > 100 µM | –
3 | Cc1cc(N(CCC#N)CCC#N)ccc1/C=C1\N=C(c2cc([N+](=O)[O-])ccc2Cl)N(c2cccc(Cl)c2)C1=O | > 100 µM | –
4 | COC(=O)c1cc(C)ccc1C1CN=NC12Cc1ccc(C)cc1C2=O (configuration not stated) | > 100 µM | –
5 | CCC/C=C/c1cc2c(cc1O)CC[C@@H]1[C@@H]2CC[C@]2(C)[C@@H](O)CC[C@@H]12 | 31.7 µM | –
6 | O=C(O)COCC(=O)N(CCOCCN(Cc1ccccc1)C(=O)COCC(=O)O)Cc1ccccc1 | > 100 µM | –
7 | COc1ccccc1N(CN1C(=O)CCC1C(=O)O)C(C)=O (configuration not stated) | > 100 µM | –
8 | O=C1C(Cl)=C(NCCN2CCOCC2)C(=O)c2ncccc21 | 2.75 µM and 3.27 µM | 1.74
9 | O=[N+]([O-])c1ccc2c(c1)S(=O)(=O)N1Cc3ccccc3CCN21 | > 100 µM | –
10 | O=C(CCc1cc(-c2ccccc2)nc(=S)[nH]1)N(Cc1ccccc1)Cc1ccccc1 | > 100 µM | –
11 | Cc1ccc(/C(Cl)=C/C=C(C#N)C#N)cc1 | 26 µM | –
12 | COc1cc(/C=N\N(C)C)cc(/C=N/N(C)C)c1O | > 100 µM | –
13 | O=P1(O)c2ccccc2CCc2ccccc21 | > 100 µM | –
14 | C/C(O)=C(\N=O)C(=O)Nc1ccc(Cl)cc1Cl | > 100 µM | –
15 | CC1CN1C(=O)NCCCCCCNC(=O)N1CC1C (configuration not stated) | > 100 µM | –
16 | COc1ccc(-c2nc(-c3nc4ccc(Cl)cc4[nH]3)c3ccccn23)cc1 | 27.6 µM | 5.63
17 | CCCC/C=C/C/C=C/CCCCCCCCC(=O)OCC1CCCN2CCCCC12 (configuration not stated) | > 100 µM | –
18 | c1ccc(-c2nc3ccccc3n3c(CN4CCCCC4)nnc23)cc1 | > 100 µM | –
19 | Nc1cccnc1NCC1(CO)CCCC1 | > 100 µM | –
20 | CC/C=C\C[C@@H](O)C/C=C1/C(=O)C=C[C@H]1C/C=C\CCCC(=O)OC | 17.5 µM | 5.17
21 | COc1cc2cc(Oc3ccc(NC(=O)Nc4ccc(Cl)c(C(F)(F)F)c4)cc3)c(C)nc2cc1OCCN1CCOCC1 | 11.2 µM | 2.82
22 | COc1ccc2c(c1)[n+](=O)c(C(=O)C/C(=N/OCCCc1ccccc1)C(=O)NC13CC4CC(CC(C4)C1)C3)c(C)n2[O-] | > 100 µM | –
23 | COc1ccc(CC2CCc3nc(N)nc(N)c3C2)cc1OC (configuration not stated) | > 88.5 µM | –
24 | O=C1N[C@H]2c3c(Cl)sc(Cl)c3[C@@H](O)[C@H]2O1 | > 100 µM | –
25 | CN(C)c1ccc(/C=C2/NC(=S)NC2=O)cc1 | > 100 µM | –

Row | Compound | TGI | GI50 [µM]
26 | COc1ccc(NC(=O)CC(=O)N/N=C/c2ccc(N(CCC#N)S(C)(=O)=O)cc2)cc1 | > 100 µM | –
27 | Nc1nc2c(nnn2C2CC(O)C(CO)O2)c(=O)[nH]1 (configuration not stated) | > 100 µM | 5.02
28 | COc1ccc2c(c1)C(=O)Cc1ccccc1CC2 | > 100 µM | –
29 | COC(=O)c1cc2c(cc1CC1Cc3cc4c(cc3C1=O)CCC4)CCC2 (configuration not stated) | > 100 µM | –
30 | CCN(CC)CCCC(C)Nc1c2ccc(Cl)cc2nc2ccc(O)cc12 (configuration not stated) | 6.12 µM | 1.56
31 | CCOC1Oc2ccc(C)cc2C(=O)/C1=C\Nc1ccc(C(N)=O)cc1 (configuration not stated) | 54.2 µM | 23.6
32 | O=C(CCc1nnc2sc(-c3ccc(Cl)cc3Cl)nn12)c1nc2ccccc2[nH]1 | 3.74 µM | 1.76
33 | O=C1CCC(N2C(=O)c3ccccc3C2=O)C(=O)N1CO (configuration not stated) | > 100 µM | > 100
34 | COCCCNC(=O)C1C(=O)C(=O)N(CCCOC)C1=O (configuration not stated) | > 100 µM | –
35 | CCOC(=O)NC(=O)c1cn(CCNCCO)c(=O)[nH]c1=O | > 100 µM | –
36 | CC(=N)OC1CC2CCC1(C)C2(C)C (configuration not stated) | > 100 µM | –
37 | Cc1cc(-c2cnn3c(NCC4CC(C)(O)C4)cc(Oc4cccnc4)nc23)ccc1C(=O)NC1CC1 (configuration not stated) | > 100 µM | 2.11
38 | CCOC(=O)c1oc2cc3c(c4c2c1-c1ccccc1N4C)C=CC(C)(C)O3 | 87.5 µM | –
39 | Cc1cccc(C(C)C)c1NC(=O)/C(Cc1c([N+](=O)[O-])cccc1[N+](=O)[O-])=N/NC(=O)CC#N | > 100 µM | –
40 | COC(=O)C1=C(O)C(C(=O)OC)[C@]2(O)[C@H](C(=O)OC)[C@H]1C[C@@H](c1ccc(OC)c(OC)c1)[C@H]2C(=O)OC (some centres not stated) | > 100 µM | –
41 | O=C(CC1C(=O)NN(c2ccc(Br)cc2)C1=O)c1cc(O)ccc1O (configuration not stated) | > 50 µM | 12.4
42 | CC1(C)OC2=C(CC1Br)C(=O)C(=O)c1ccccc12 (configuration not stated) | 3.49 µM | 1.88
43 | OC1(c2ccccc2)C2CCN(CC2)C1CN1CCOCC1 (configuration not stated) | > 100 µM | –
44 | OC1(c2ccc(Cl)cc2)C(N2CCCC2)c2ccccc2C2=NCCN21 (configuration not stated) | 63 µM | –
45 | c1nc(N2CC2)c2cnn(C3CCCCO3)c2n1 (configuration not stated) | > 100 µM | –
46 | N#CC1C(=O)N(c2ccccc2)NC12OC(=O)c1ccncc12 (configuration not stated) | > 20 µM | –
47 | CCOC(=O)N(NC(=O)NC(C)C)c1ccccc1 | > 100 µM | –
48 | CC/C=C\C[C@H](F)C/C=C1/C(=O)C=C[C@@H]1C/C=C\CCCC(=O)O | 25 µM | 8.69
49 | c1ccc(CCCCNCc2cc(CNCCCCc3ccccc3)cc(CNCCCCc3ccccc3)c2)cc1 | 2.55 µM | –
50 | NC(=O)COC(=O)c1c(Cl)nc2sccn12 | > 100 µM | –

Row | Compound | TGI | GI50 [µM]
51 | Ic1ccc2c(c1)N(c1ccccc1)c1cc(N=c3ccc4nc5ccc(I)cc5n(-c5ccccc5)c-4c3)ccc1N2 | > 100 µM | –
52 | COc1ccc(/C=C2\CCC(C)C3C2=NN(c2ccccc2)C3c2ccc(OC)c(OC)c2)cc1OC (configuration not stated) | 19.7 µM | –
53 | O=C1NC(=O)C(CCC(=O)c2ccc3ccccc3c2)C(=O)N1 | > 100 µM | –
54 | CC(C)(C)OC(=O)CN1C(=O)CC1CC(=O)c1ccccc1 (configuration not stated) | 36.9 µM | –
55 | COc1cc[nH]c1/C=C1\C(=O)Nc2ccc(F)c(C#CC3(O)CCNCC3)c21 | 1.64 µM | 0.288
56 | CO/C(N)=C(\C#N)N=Cc1ccco1 | > 100 µM | –
57 | COc1cc(/C=C2/SC(c3ccccc3)N(c3ccccc3Cl)C2=O)cc(OC)c1OC (configuration not stated) | > 100 µM | –
58 | C/C(Cl)=N/OC(=O)Nc1ccc(S(N)(=O)=O)c(C)c1 | > 76.5 µM | –
59 | CC[C@@]1(c2ccccc2)C2=C(CC(C)(C)CC2=O)Nc2[nH]ncc21 | > 100 µM | > 100
60 | Nc1nc(Cl)c(CO)c(NCC2(CO)CC(CCc3ccccc3)C2)n1 (configuration not stated) | > 100 µM | –
61 | Cc1cc2c(cc1C(=O)CCC(=O)O)CC1(C2)Cc2cc(C)c(C(=O)CCC(=O)O)cc2C1 | > 100 µM | –
62 | COc1ccc2c(c1)CCCN2c1c2ccccc2nc2ccccc12 | > 100 µM | 0.788
63 | COc1ccc(C[C@@H](CO)NC2=C(C#N)CCC2)cc1 | > 100 µM | –
64 | CN1CCN(c2ccc3[nH]c(-c4cc(O)c5c(nc(CO)n5C)c4O)nc3n2)CC1 | > 100 µM | –
65 | Cc1cc2cc3c(cc2c(-c2ccc([N+](=O)[O-])cc2)n1)OCO3 | > 100 µM | –
66 | Cc1c(C(=O)C/C(=N/NC(=O)C[N+](C)(C)C)C(=O)Nc2ccc(Cl)cc2)[n+](=O)c2ccccc2n1O | > 100 µM | –
67 | N#C/C(=C\c1ccc2ccccc2c1)c1ccccc1 | > 100 µM | –
68 | CCOCc1c(C)cc(C)c(C2C(C(=O)c3ccccc3)N3c4ccccc4C=CC3C2(C#N)C(=O)OCC)c1C (configuration not stated) | > 100 µM | –
69 | CN(C)CCNC(=O)c1cccc2ccc(-c3ccncc3)nc12 | 22.3 µM | –
70 | O=C(O)C1CCCN(CCc2c[nH]c3ccccc23)C1 (configuration not stated) | > 100 µM | –
71 | O=C1N=C(SC2OC(CO)C(O)C(O)C2O)S/C1=C\c1ccccc1 (configuration not stated) | > 100 µM | –
72 | COc1cc2ncnc(Nc3cccc(Cl)c3)c2cc1OC | 5.69 µM | –
73 | CCOC(=O)C1(Cc2ccccc2)C=CN(C(=O)c2ccccc2)C=C1 | > 100 µM | –
74 | N#CC(C#N)=C1Nc2ccccc2S1 | 60.7 µM | 22
75 | COc1ccc(N2C(=O)/C(=C/c3ccc(N(CCC#N)CCC#N)cc3C)N=C2c2cc([N+](=O)[O-])ccc2Cl)cc1 | > 56.2 µM | –
